# In PubChem BioAssay (Tox21):
# The shares of active, inactive and inconclusive entries below differ from those in the screen. For some of these results: Potencies beside an inconclusive call are fits to weak or partial responses and may not hold up. The source made the active and inactive calls. Unless noted, the call rests on the fitted dose curve; in most records, active means well fitted curve in the direction sought with a large enough effect in the repeat runs; inconclusive means weak or mixed curves; inactive means no such curve, though single readings can be large; an effect the other way counts as inactive or inconclusive.
# How the values were obtained:
# [1] = qHTS assay for small molecule agonists of the antioxidant response element (ARE) signaling pathway (AID 743202; active means well fitted activation curve with a large enough effect in the signal ratio in the repeat runs, not every such curve was filed as active; inconclusive means weak or mixed curves, or effect the other way; inactive means no such curve, though single readings can be large or run the other way; the % refers to the signal ratio; further: potency means the concentration at half of the fitted maximal effect); settings: HepG2 ARE-bla reporter, beta-lactamase FRET, 16 h; activation: at 73.3 µM (top of the series) unless noted
# How it was run: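 Following a 16 h, 37 C exposure of reporter HepG2 cells (ARE-driven beta-lactamase, 2,000 cells/well) to compounds, FRET substrate was applied for 2 h at room temperature and fluorescence intensity recorded.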
# [2] = qHTS assay to identify small molecule agonists of the farnesoid-X-receptor (FXR) signaling pathway - cell viability counter screen (AID 743218); settings: FXR-bla HEK293T viability, CellTiter-Glo luminescence, 16 h; viability change, negative = cytotoxic: at 62.6 µM (top of the series) unless noted; further: nearly all actives have a fitted effect of over 45% in size; further: potency means the concentration at half of the fitted maximal effect
# How it was run: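 Readout: CellTiter-Glo luminescence, 30 min RT, multiplexed after the FXR-bla FRET reading. HEK 293T FXR-UAS-bla cells received compound 5 h post-plating and were incubated 16 h at 37 C.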
# [3] = target: Vitamin D3 receptor (Homo sapiens) (UniProt P11473); test: qHTS assay to identify small molecule antagonists of the vitamin D receptor (VDR) signaling pathway (AID 743223; active means well fitted inhibition curve with a large enough effect in the signal ratio in the repeat runs, not every such curve was filed as active; inconclusive means weak or mixed curves, or effect the other way; inactive means no such curve, though single readings can be large or run the other way; the % refers to the signal ratio; further: on the % scale 0 is the no-effect control and ±100 the full control effect); settings: VDR-UAS-bla HEK293T, beta-lactamase FRET ratio, 16 h; activity change, negative = inhibition: at 61 µM (top of the series) unless noted
# Chain of UniProt P11473 (P11473 whole entry, looked up): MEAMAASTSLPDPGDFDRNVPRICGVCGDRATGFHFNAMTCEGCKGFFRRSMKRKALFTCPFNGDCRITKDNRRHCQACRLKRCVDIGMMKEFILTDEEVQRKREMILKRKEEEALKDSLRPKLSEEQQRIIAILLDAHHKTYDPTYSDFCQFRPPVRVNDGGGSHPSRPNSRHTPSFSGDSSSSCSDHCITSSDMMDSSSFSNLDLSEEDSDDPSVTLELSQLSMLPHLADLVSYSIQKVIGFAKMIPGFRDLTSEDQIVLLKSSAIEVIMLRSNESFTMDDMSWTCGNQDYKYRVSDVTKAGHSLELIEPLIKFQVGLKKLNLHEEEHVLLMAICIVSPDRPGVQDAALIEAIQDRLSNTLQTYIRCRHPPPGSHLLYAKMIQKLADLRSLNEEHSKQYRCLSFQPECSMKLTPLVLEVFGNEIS
# How it was run: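 VDR-bla cells were treated with compound plus 3 nM final 1alpha,25-dihydroxyvitamin D3 for 16 h at 37C. Beta-lactamase reporter read by B/G FRET substrate fluorescence after 2 h at room temperature. qHTS format.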
# [4] = qHTS assay to identify small molecule antagonists of the vitamin D receptor (VDR) signaling pathway - cell viability counter screen (AID 743225); settings: VDR-bla HEK293T viability, CellTiter-Glo luminescence, 16 h; viability change, negative = cytotoxic: at 61 µM (top of the series) unless noted; further: potency means the concentration at half of the fitted maximal effect; nearly all actives have a fitted effect of over 50% in size
# How it was run: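 VDR-UAS-bla HEK 293T cells were plated and incubated 4 h at 37C, then dosed with compound plus 3 nM (final) 1-alpha,25-dihydroxyvitamin D3 for 16 h. After the 2 h beta-lactamase read, viability in the same wells was read as CellTiter-Glo luminescence after 30 min at room temperature.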
# [5] = qHTS assay to identify small molecule agonists of the AP-1 signaling pathway (AID 1159526; calls by dose curve; further: potency means the concentration at half of the fitted maximal effect; on activation: on the % scale 0 is the no-effect control and ±100 the full control effect); settings: ME-180 (cervical carcinoma) AP-1-bla reporter, beta-lactamase FRET ratio, 5 h; activation: at 76.8 µM (top of the series) unless noted
# [6] = target: Vitamin D3 receptor (Homo sapiens) (UniProt P11473); test: qHTS assay to identify small molecule agonists of the vitamin D receptor (VDR) signaling pathway (AID 743222; calls by dose curve; further: potency means the concentration at half of the fitted maximal effect; on activation: on the % scale 0 is the no-effect control and ±100 the full control effect); settings: HEK293T VDR-UAS-bla, beta-lactamase FRET ratio, 16 h; activation: at 63.5 µM (top of the series) unless noted
# How it was run: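 Following 4 h attachment at 37C, VDR-bla cells (2,000 per well) received DMSO-dissolved compounds or controls. After 16 h incubation, LiveBLAzer B/G FRET substrate was added and fluorescence read 2 h later at room temperature.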
# [7] = qHTS assay to identify small molecule agonists of the vitamin D receptor (VDR) signaling pathway - cell viability counter screen (AID 743224); settings: VDR-bla HEK293T viability, CellTiter-Glo luminescence, 16 h; activity change, negative = cytotoxicity: at 62.6 µM (top of the series); further: nearly all actives have a fitted effect of over 50% in size; further: potency means the concentration at half of the fitted maximal effect; on activity change, negative = cytotoxicity: on the % scale 0 is the no-effect control and ±100 the full control effect
# How it was run: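 In parallel with the bla FRET readout, cytotoxicity toward VDR-bla cells after 16 h compound exposure was assessed by CellTiter-Glo, with luminescence recorded after a 30 min room-temperature incubation.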
# [8] = target: Bile acid receptor (Homo sapiens) (UniProt Q96RI1); test: qHTS assay to identify small molecule agonists of the farnesoid-X-receptor (FXR) signaling pathway (AID 743220; active means well fitted activation curve with a large enough effect in the signal ratio in the repeat runs, not every such curve was filed as active; inconclusive means weak or mixed curves, or effect the other way; the % refers to the signal ratio; further: potency means the concentration at half of the fitted maximal effect); settings: HEK293T FXR-UAS-bla, beta-lactamase FRET ratio, 16 h; activation: at 62.6 µM (top of the series)
# Chain of UniProt Q96RI1 (Q96RI1 whole entry, looked up): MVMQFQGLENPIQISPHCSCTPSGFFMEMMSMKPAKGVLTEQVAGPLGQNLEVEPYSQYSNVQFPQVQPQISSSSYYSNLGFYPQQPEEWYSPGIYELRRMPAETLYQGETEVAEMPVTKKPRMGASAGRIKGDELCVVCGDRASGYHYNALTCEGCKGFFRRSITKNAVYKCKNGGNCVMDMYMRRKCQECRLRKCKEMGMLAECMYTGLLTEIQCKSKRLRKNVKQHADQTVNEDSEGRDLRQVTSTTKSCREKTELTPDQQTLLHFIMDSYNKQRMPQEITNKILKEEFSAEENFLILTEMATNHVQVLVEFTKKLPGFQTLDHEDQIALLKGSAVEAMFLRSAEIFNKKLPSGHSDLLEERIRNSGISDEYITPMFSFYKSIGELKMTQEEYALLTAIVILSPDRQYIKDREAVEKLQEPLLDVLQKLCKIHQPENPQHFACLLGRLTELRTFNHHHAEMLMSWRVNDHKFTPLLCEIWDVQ
# How it was run: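 FXR-UAS-bla HEK 293T cells carrying a UAS-driven beta-lactamase reporter were plated for 5 h at 37C/5% CO2, then exposed to DMSO-dissolved Tox21 10K compounds for 16 h at 37C. A LiveBLAzer B/G FRET substrate was loaded for 2 h at room temperature before fluorescence reading.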
# [9] = qHTS assay to identify small molecule antagonists of the farnesoid-X-receptor (FXR) signaling pathway - cell viability counter screen (AID 743221; active means well fitted cell-killing curve with a large enough effect in the repeat runs, not every such curve was filed as active; inconclusive means weak or mixed curves, or effect the other way; inactive means no such curve, though single readings can be large or run the other way; further: on the % scale 0 is the no-effect control and ±100 the full control effect; nearly all actives have a fitted effect of over 50% in size); settings: FXR-bla HEK293T viability, CellTiter-Glo luminescence, 16 h; activity change, negative = cytotoxicity: at 62.6 µM (top of the series) unless noted
# How it was run: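 GeneBLAzer FXR-UAS-bla HEK 293T cells, compound plus chenodeoxycholic acid (50 uM final), 16 h at 37 C. CellTiter-Glo added to the same wells after the beta-lactamase read; luminescence read after 30 min at room temperature as viability.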
# [10] = qHTS assay for small molecule activators of the heat shock response signaling pathway - cell viability counter screen (AID 743209); settings: HSE-bla HeLa viability, CellTiter-Glo luminescence, 5 h; activity change, negative = cytotoxicity: at 62.6 µM (top of the series); further: nearly all actives have a fitted effect of over 50% in size; further: potency means the concentration at half of the fitted maximal effect
# How it was run: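 Same-well multiplex: after 2.5 h room-temperature incubation with LiveBLAzer B/G substrate and fluorescence reading, CellTiter-Glo reagent was added to HSE-bla HeLa cells that had received compound for 5 h at 37 C; luminescence read after 30 min.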
# [11] = qHTS assay for small molecule activators of the heat shock response signaling pathway (AID 743210; active means well fitted activation curve with a large enough effect in the signal ratio in the repeat runs, with a control signal flat, not every such curve was filed as active; inconclusive means weak or mixed curves; the % refers to the signal ratio; further: potency means the concentration at half of the fitted maximal effect); settings: HeLa HSE-bla reporter, beta-lactamase ratio, 5 h; activation: at 62.6 µM (top of the series) unless noted
# How it was run: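 Heat shock element–beta-lactamase HeLa reporter cells; qHTS with compounds for 5 h at 37 C; detection by FRET substrate fluorescence after 2.5 h at RT.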
# [12] = qHTS assay to identify small molecule antagonists of the peroxisome proliferator-activated receptor delta (PPARd) signaling pathway - cell viability counter screen (AID 743213); settings: PPARd-bla HEK293H viability, CellTiter-Glo luminescence, 17 h; viability change, negative = cytotoxic: at 62 µM (top of the series) unless noted; further: nearly all actives have a fitted effect of over 50% in size; further: potency means the concentration at half of the fitted maximal effect
# How it was run: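 PPARd-bla HEK293H cells were treated with compounds plus agonist L165041 (300 nM final) for 17 h at 37 C. Viability was then read in the same wells by CellTiter-Glo luminescence after 30 min at room temperature.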
# [13] = target: Peroxisome proliferator-activated receptor delta (Homo sapiens) (UniProt Q03181); test: qHTS assay to identify small molecule antagonists of the peroxisome proliferator-activated receptor delta (PPARd) signaling pathway (AID 743215; active means well fitted inhibition curve with a large enough effect in the signal ratio in the repeat runs, not every such curve was filed as active; inconclusive means weak or mixed curves, or effect the other way; inactive means no such curve, though single readings can be large or run the other way; the % refers to the signal ratio;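 further: cells stimulated with agonist L165041 at 300 nM final during compound exposure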; further: potency means the concentration at half of the fitted maximal effect); settings: HEK293H PPARd-UAS-bla, beta-lactamase FRET ratio, antagonist, 17 h; ratio activity, negative = inhibition: at 62 µM (top of the series) unless noted
# Chain of UniProt Q03181 (Q03181 whole entry, looked up): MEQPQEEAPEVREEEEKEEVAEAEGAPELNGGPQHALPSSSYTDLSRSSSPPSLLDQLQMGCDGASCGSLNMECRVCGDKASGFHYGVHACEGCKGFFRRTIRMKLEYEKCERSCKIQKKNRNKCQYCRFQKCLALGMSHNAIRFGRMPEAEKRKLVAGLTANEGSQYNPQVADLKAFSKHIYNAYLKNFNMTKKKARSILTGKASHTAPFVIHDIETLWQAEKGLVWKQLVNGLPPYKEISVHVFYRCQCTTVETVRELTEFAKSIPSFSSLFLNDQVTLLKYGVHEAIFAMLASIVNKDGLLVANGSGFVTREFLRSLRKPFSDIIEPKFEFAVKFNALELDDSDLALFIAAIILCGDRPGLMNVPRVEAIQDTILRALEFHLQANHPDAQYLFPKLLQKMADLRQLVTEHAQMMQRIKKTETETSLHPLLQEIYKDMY
# How it was run: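 Fluorescence from cleaved LiveBLAzer B/G FRET substrate (2 h, room temperature) reports PPARd-driven beta-lactamase in HEK293H UAS-bla cells. Cells had been treated 17 h at 37 C with compound plus 300 nM final L165041.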
# [14] = qHTS assay to identify small molecule agonists of the peroxisome proliferator-activated receptor delta (PPARd) signaling pathway - cell viability counter screen (AID 743211); settings: PPARd-bla HEK293H viability, CellTiter-Glo luminescence, 17 h; activity change, negative = cytotoxicity: at 62.6 µM (top of the series); further: potency means the concentration at half of the fitted maximal effect; nearly all actives have a fitted effect of over 55% in size
# How it was run: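 PPARd-bla HEK293H cells (3000/well) were pre-incubated 5 h at 37 C, then exposed to compound for 17 h at 37 C. After 2 h with LiveBLAzer substrate, CellTiter-Glo was added to the same wells; luminescence read after 30 min at room temperature.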
# Tags describe the fitted curve by direction and shape or compound fluorescence and quenching.
compound,measurement,setting,value
S=C(S)NCCNC(=S)S,Potency,[1],active: 60 µM
same,Potency,[2],"inconclusive: 24.1 µM [rising, single point]"
same,"activity change, negative = inhibition",[3],inconclusive: 6.86%
same,Potency,[4],"inconclusive: 54 µM [rising, single point]"
same,activation,[5],inconclusive: 10.6%
NC(N)=N/N=C/c1c(Cl)cccc1Cl,Potency,[1],inconclusive: 33.5 µM
same,activation,[6],inconclusive: 1.31%
same,Potency,[7],inactive
same,activation,[5],inconclusive: 16.8% [at 35.3 µM]
C=CCOCC(O)CO (stereo unspecified),Potency,[1],inactive
same,Potency,[8],"inconclusive: 0.0039 µM [rising, full curve, poor fit]"
same,Potency,[9],inactive
same,"activity change, negative = inhibition",[3],inconclusive: -19.8%
same,Potency,[5],inactive
C=CC[N+](C)(C)CC=C,Potency,[1],inactive
same,Potency,[2],inactive
same,Potency,[6],"inconclusive: 11 µM [rising, partial curve]"
same,"activity change, negative = inhibition",[3],inconclusive: 29.2%
same,Potency,[5],inactive
CCCCCCCCCC#N,Potency,[1],inactive
same,"activity change, negative = inhibition",[3],inconclusive: 4.98%
same,Potency,[7],"inconclusive: 24.4 µM [rising, partial curve, poor fit]"
same,Potency,[5],"inconclusive: 21.8 µM [activator, full curve]"
CCCCCCCCSCC,activation,[1],inconclusive: -11.9%
same,"activity change, negative = inhibition",[3],inconclusive: 31.3%
same,Potency,[4],"inconclusive: 21.9 µM [rising, single point]"
same,Potency,[5],inactive
CCCCCCCCCCCCCCCCCBr,Potency,[10],inactive
same,Potency,[11],"inconclusive: 7.38 µM [activator, partial curve, poor fit]"
same,Potency,[5],inconclusive: 13.1 µM [activator]
Cc1ccnc(N)c1,Potency,[10],inactive
same,Potency,[12],inactive
same,Potency,[5],inactive
COc1ccc2cc(C=O)ccc2c1,Potency,[11],inactive
same,Potency,[12],inactive
same,Potency,[13],inactive
same,Potency,[2],inactive
same,Potency,[5],inactive
CC(C)O,Potency,[10],"inconclusive: 59 µM [cytotoxic, single point]"
same,Potency,[11],inconclusive: 59 µM
same,Potency,[14],"inconclusive: 59 µM [cytotoxic, single point]"
same,Potency,[12],"inconclusive: 59 µM [cytotoxic, single point]"
same,Potency,[13],"inconclusive: 52.6 µM [rising, partial curve]"
same,Potency,[3],inactive
same,Potency,[7],"inconclusive: 59 µM [cytotoxic, single point]"
same,Potency,[5],inconclusive: 66.2 µM [cytotoxic]
